Measured values taken from the supplement of paper PMC3334620.
The full ranking holds about 33,000 sequences; the median of “E-score (-0.5 to 0.5)” is about -0.017, and the highest 2% start at about 0.3. This is one part of the list.

These sequences were tested against T1, Sut1 (UniProt P53032) (assay: PBM E-score (8-mer binding enrichment) (E-score (-0.5 to 0.5)); higher = stronger / more preferred TF binding; most listed sequences are background and not binding sites). Conditions: protein concentration: 200 nM; construct: GST-full length.
T1 sequence: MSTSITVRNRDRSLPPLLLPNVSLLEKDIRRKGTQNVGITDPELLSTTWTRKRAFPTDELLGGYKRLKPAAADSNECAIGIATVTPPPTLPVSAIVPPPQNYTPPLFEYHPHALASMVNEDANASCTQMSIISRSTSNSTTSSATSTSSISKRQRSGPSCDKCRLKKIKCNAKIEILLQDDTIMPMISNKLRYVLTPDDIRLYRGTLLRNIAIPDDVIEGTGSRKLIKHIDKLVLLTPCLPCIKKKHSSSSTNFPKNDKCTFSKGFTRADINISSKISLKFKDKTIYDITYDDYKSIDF
Protocol: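 Universal 'all 10-mer' protein binding microarrays (Agilent AMADID 015681) probed with GST-tagged S. cerevisiae TFs (full-length or DBD) made by in vitro transcription/translation (PURExpress), about 100-200 nM. Bound TF was detected with fluorescent anti-GST. Each ungapped 8-mer (which stands for itself and its reverse complement) is scored by the PBM enrichment score (E-score), a modified Wilcoxon-Mann-Whitney statistic from -0.5 to +0.5, computed with the Universal PBM Analysis Suite. Scale: above 0.35 generally sequence-specific binding.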

Row | Sequence | PBM E-score
1 | CCCAGCGC | -0.145
2 | CATGCGCC | -0.176
3 | AACAGGTT | -0.0198
4 | CAATCAGC | 0.0337
5 | AGTTCATG | 0.106
6 | AATTGATG | 0.225
7 | ATGACGTC | 0.00848
8 | AAGGTCTC | -0.0653
9 | ATCTAAAC | 0.00716
10 | GCAACGAA | 0.0239
11 | TTCGCAAA | 0.303
12 | AACCCCTG | -0.314
13 | AGGAGAAT | -0.0881
14 | ACTGCCAA | -0.0403
15 | AGTTGATC | -0.034
16 | AGAATATC | 0.00262
17 | ACGAACGA | 0.0134
18 | GTTTGTGA | 0.122
19 | AGACATGG | -0.0838
20 | AGACGTGA | -0.00663
21 | CCGATAGG | -0.0115
22 | AACTGAGC | -0.0323
23 | ATCAATGG | 0.137
24 | CGTCATGC | -0.233
25 | AGTTAGGG | -0.154

Row | Sequence | PBM E-score
26 | AAACTTAA | 0.262
27 | CCCGTTCC | -0.0399
28 | ATTACGAC | 0.0741
29 | GAGTCCCA | 0.0612
30 | ATCTAATG | 0.068
31 | CCATTAGA | -0.0717
32 | AGAACACC | -0.107
33 | CTACATTA | 0.0331
34 | CACAAACA | 0.139
35 | ACACAAGA | 0.0649
36 | AATCTTCC | 0.0113
37 | GAGATTCC | 0.0713
38 | AGAAGTCT | -0.0104
39 | ATGTTAGG | -0.0213
40 | CCTTCAGA | -0.0889
41 | CCGGACGA | 0.111
42 | CACACGCG | -0.0971
43 | CTCGAATC | -0.0965
44 | CCCGGGCA | -0.229
45 | AGACCGGG | 0.0904
46 | ACGCAAGG | -0.216
47 | CATGTCCG | 0.382
48 | AGCGCTAG | -0.126
49 | CTACCTCA | -0.036
50 | CAGTAGGA | -0.329

Row | Sequence | PBM E-score
51 | CACCGGTC | -0.223
52 | AGGGTTGA | -0.17
53 | AAATCCTT | -0.0419
54 | TACCGGCA | -0.0381
55 | AACAAAAC | 0.241
56 | ACCGACTG | -0.0196
57 | ATAACAGA | 0.137
58 | GCCGTGGA | -0.108
59 | AGAACAAC | 0.179
60 | CGACACTA | -0.00571
61 | CATTTATA | 0.185
62 | CTGGTTCA | -0.0784
63 | AAGCCCTT | -0.245
64 | AGGGGACG | -0.235
65 | CATACCCA | -0.168
66 | AATAAGTA | 0.25
67 | AGTCCAAC | -0.0182
68 | GGGGTTCA | 0.142
69 | ATCTTTCA | 0.123
70 | AGTCTTGC | -0.083
71 | AGATTTGA | 0.0395
72 | GCGCCCTA | -0.174
73 | AAAAAGTG | 0.149
74 | ACAAGCAC | -0.0443
75 | GTGTACGA | -0.0704

Row | Sequence | PBM E-score
76 | ATAGTGAT | 0.0941
77 | CCTGAAAA | 0.0275
78 | GCCCAGAC | -0.38
79 | CCGGTCGC | -0.072
80 | ACTCTTAC | 0.203
81 | CGGTCCGA | 0.264
82 | AAGTGTAG | 0.101
83 | AATAGGAG | -0.101
84 | GACGCAGC | -0.199
85 | TAGAAAGA | 0.0934
86 | ACTAGGAG | -0.183
87 | AGAAGCGC | 0.169
88 | AATTGAAG | 0.115
89 | CCAACTAC | 0.0889
90 | TATTAATA | 0.167
91 | CCATCGAG | -0.0246
92 | CCGCTCAG | -0.223
93 | ACGGACAC | 0.0824
94 | CTCCTCGA | -0.14
95 | CTTCGCGC | 0.0638
96 | CAACACGG | -0.0337
97 | AAGGGACT | -0.0504
98 | CAGCCTAA | -0.189
99 | GACACAGA | 0.11
100 | AAGATTCA | 0.137

Row | Sequence | PBM E-score
101 | AAGACTAT | -0.0585
102 | CCACGCCG | -0.166
103 | AATGGTTA | 0.0529
104 | GTCTCCAC | -0.31
105 | AAGGCAGA | -0.0787
106 | CTCTGGTC | -0.00832
107 | CGATCCTC | -0.124
108 | TCCATAAA | 0.0101
109 | CCCTATAA | -0.0777
110 | ACGTACTC | 0.117
111 | AGATAATC | 0.166
112 | CAGCGATA | -0.00603
113 | GATCCAGA | 0.0236
114 | CTGGACTA | -0.0898
115 | CAGGTTCA | -0.241
116 | GCGATCTA | -0.0775
117 | CGTGTGAA | -0.0949
118 | CCAAGGAG | -0.0556
119 | ATCGAGAC | -0.0345
120 | ATCGTGCA | -0.0757
121 | AGCCATAT | -0.0473
122 | GTTCATAA | 0.0125
123 | AATCTACC | 0.121
124 | GTCTGTTA | 0.00506
125 | GACACCTA | -0.0336

Row | Sequence | PBM E-score
126 | CAGCAGTC | -0.12
127 | CCATATAC | 0.0631
128 | ATTGATAG | 0.188
129 | AGGGCGGC | -0.165
130 | ACACTTCT | -0.154
131 | CTATGAAA | 0.0309
132 | ATATAACA | 0.309
133 | ACTGTCCG | 0.236
134 | TGCGTACA | -0.15
135 | CGCTGAGA | -0.128
136 | TACAACAA | 0.286
137 | GCCAGAAA | 0.195
138 | AACCTTAC | 0.169
139 | CTGTGGTA | -0.0857
140 | ACTTTGGA | 0.194
141 | CTGGGAAC | -0.091
142 | GCATCCAC | -0.107
143 | GGTTTAAC | 0.142
144 | ATGCGTTG | 0.00619
145 | ACTCTCTC | -0.136
146 | GACTTAAA | 0.0559
147 | ACTGTTTG | -0.0205
148 | AGTATACA | 0.106
149 | CAGAGCAG | -0.106
150 | ACAAGAAT | 0.167

Row | Sequence | PBM E-score
151 | AATTGTAC | 0.146
152 | ACGGCCCG | -0.0453
153 | GAGTGCGA | 0.0338
154 | CAACATAC | 0.131
155 | ACTTCACA | 0.0747
156 | CCCAACGC | -0.103
157 | CTTAAGCC | -0.0749
158 | ACAAGCGC | -0.0824
159 | CTGCCACC | -0.297
160 | ACCGAATC | 0.0139
161 | GCATGTCC | -0.0294
162 | ACGCATCT | 0.0685
163 | CAGTCGCA | -0.206
164 | CGGCTCAG | -0.117
165 | CATGATAA | 0.217
166 | TGTAGACA | 0.0884
167 | ATCGTGTA | 0.00282
168 | CTCGGAAC | 0.182
169 | ACGCATAG | 0.00972
170 | CTGTTCTA | 0.0446
171 | CGGGGCCA | -0.0153
172 | CACACCTA | -0.0151
173 | ACGCATAT | 0.0168
174 | CAATTATG | 0.0932
175 | ACTGGCAT | -0.156

Row | Sequence | PBM E-score
176 | TATTACGA | 0.223
177 | CCTCGTTC | -0.159
178 | ATCAAACA | 0.0922
179 | AATCCCAA | 0.11
180 | ATATTGAT | 0.258
181 | TTTCGAAA | 0.211
182 | AGGTACTG | -0.0919
183 | GGGACCAC | -0.0986
184 | AGCCGATG | -0.0167
185 | AAATTAAC | 0.236
186 | ACGGAGAT | 0.435
187 | ATTAGACA | 0.134
188 | AACTATTA | 0.177
189 | CTGGTCCC | -0.413
190 | CCAACGAG | -0.267
191 | ACTTAATG | 0.16
192 | GTCGCTAA | 0.0131
193 | ATATTATG | 0.362
194 | ATATGCAA | 0.00072
195 | CATCCTCG | -0.188
196 | AGCGTTCC | -0.0982
197 | CTATTGAG | -0.0153
198 | GATTAATC | 0.177
199 | CTACTCTA | 0.0277
200 | ATTTGGTA | 0.142

Row | Sequence | PBM E-score
201 | GATCTGAC | -0.136
202 | CGATTAAA | 0.237
203 | CCCGGGTC | -0.0481
204 | AGCGCGGC | -0.252
205 | CGGGTAAA | 0.165
206 | AAGAAATG | 0.144
207 | CCTCACCA | -0.122
208 | AGGGCTCG | -0.223
209 | ACCGAGGG | -0.284
210 | ATTTTTGA | 0.235
211 | AAGTGGTA | -0.0726
212 | ACCACGGG | -0.157
213 | AATTTTAC | 0.27
214 | CCAAAAAG | 0.134
215 | GTGTTATA | 0.173
216 | CCCAAGGC | -0.0767
217 | GGAGGCTA | -0.266
218 | GTTGGGTA | -0.0741
219 | ATAATCGC | 0.0269
